Experimental data as given in PubChem BioAssay AID1346428 (National Center for Advancing Translational Sciences (NCATS), 2018).
Screen size: about 48,000 compounds; about 1,200 (2.5%) were called active. Inconclusive results (about 2%) are left out.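 How the source made its calls: active means activation of at least 60% and not above a set upper limit (about 1 call in 100 departs from these limits); inconclusive means activation of 40% to 60%, or above that upper limit; inactive means activation under 40%.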 The list shows a part of the results.

These compounds were tested against Probable G-protein coupled receptor 32 (Homo sapiens) (UniProt O75388) (assay: qHTS for Agonists of Human Resolvin D1 Receptor DRV1). Settings: CHO-K1 GPR32 beta-arrestin PathHunter luminescence, 90 min; at 76.9 µM; hits give high values; zero percent set by DMSO-only wells.
Outline: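 Cells are plated overnight, treated with compounds in DMSO for 90 minutes at 37 °C, and developed with PathHunter detection reagent for 1 hour before luminescence is read; signal reflects beta-arrestin binding to GPR32 in engineered CHO-K1 cells.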
Further: 0% is about no effect.

Sequence of UniProt O75388 (O75388 whole entry, looked up): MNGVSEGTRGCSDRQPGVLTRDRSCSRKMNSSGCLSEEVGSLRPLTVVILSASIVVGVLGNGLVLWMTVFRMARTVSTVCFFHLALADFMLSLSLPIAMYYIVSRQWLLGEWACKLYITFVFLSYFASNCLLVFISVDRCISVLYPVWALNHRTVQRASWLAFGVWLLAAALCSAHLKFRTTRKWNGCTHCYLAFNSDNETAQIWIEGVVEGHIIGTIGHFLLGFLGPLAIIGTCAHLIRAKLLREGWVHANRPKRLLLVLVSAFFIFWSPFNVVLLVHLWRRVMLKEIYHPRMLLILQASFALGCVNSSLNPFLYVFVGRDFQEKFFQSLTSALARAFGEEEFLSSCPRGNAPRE

SMILES	activation
O=C(COCc1cc(-c2ccc3c(c2)OCO3)on1)Nc1cccc(O)c1	inactive: -4.75%
O=C(Nc1ccc(Br)cc1)Nc1nc2c(s1)CCCCCC2	inactive: 26.4%
CCN(CC)S(=O)(=O)c1ccc2c(c1)N(CC(=O)Nc1cccc(C(C)=O)c1)C(=O)CO2	inactive: -34.9%
COc1ccc(Cl)cc1S(=O)(=O)Nc1ccc2c(c1)n(C)c(=O)n2C	inactive: 18%
COc1ccc(NC(=O)C(=O)Nc2ccc3nc4n(c(=O)c3c2)CCCCC4)c(OC)c1	inactive: -7.73%
Cc1cccc(C(=O)n2nc(-c3ccco3)nc2NCc2ccccc2)c1	inactive: -27.9%
Cc1ncc(CSSCc2cnc(C)c(O)c2CO)c(CO)c1O	inactive: -19.7%
CCC(=O)N1c2ccccc2CC1C(=O)NCCCN1CCN(c2ccc(F)cc2)CC1 (stereo not drawn)	inactive: -0.211%
CCOc1ccc(NCc2cccn2-c2nnc(N3CCC(C(=O)NCCc4ccc(OCC)c(OCC)c4)CC3)s2)cc1	inactive: -32.6%
COCCn1c(C)cc(O)c(C(c2ccc(OC)cc2)N2CCCCC2)c1=O (stereo not drawn)	inactive: -7.9%
CC1CN(C(=O)Nc2ccc(C(=O)NCCc3ccc(Cl)cc3)cc2)c2ccccc2S1 (stereo not drawn)	inactive: -2.71%
Cc1ccccc1NC(=O)CSCn1nnc2c(=O)[nH]c(Cc3ccc(F)cc3)nc21	inactive: 9.01%
CC(=O)Oc1cccc2c1C(=O)c1c(OC(C)=O)cc(C(=O)O)cc1C2=O	inactive: 7.4%
Cn1c(C(=O)NCCc2ccccc2)cc2cc(S(=O)(=O)N3CCCCC3)ccc21	inactive: -11.3%
Cc1cccc(NC(=O)C(=O)NCC(c2cccnc2)N2CCN(Cc3ccccc3)CC2)c1 (stereo not drawn)	inactive: -3.2%
CCCC(=O)Nc1ccc2nc(SCCOc3ccccc3)sc2c1	inactive: 0.627%
CCCN1Cc2cccc(C(=O)Nc3ccccc3F)c2C1=O	inactive: -6.77%
COc1ccc(Cl)cc1NC(=O)c1c(NCc2cccnc2)sc2c1CCCC2	inactive: -1.03%
CC(C)(C)OC(=O)N1CCC(c2c(C(=O)NCCc3ccsc3)cnn2-c2ccc(F)cc2F)CC1	inactive: -26.3%
CCOC(=O)c1c(Nc2ccc(OCC)cc2)nnc(-c2ccccc2)c1-c1ccccc1	inactive: 1.42%
COc1ccccc1C(=O)Nc1nnc(S(=O)(=O)N2CCCCC2)s1	inactive: 5.74%

SMILES	activation
CC(C)c1cnc2c(c1SCC(=O)c1ccc(Cl)cc1)c(=O)n(C)c(=O)n2C	inactive: -26.1%
COc1ccc2ncc3c(-c4ccccc4)nn(-c4ccc(C)c(C)c4)c3c2c1	inactive: -5.22%
Nc1nc(Cl)nc2c1ncn2[C@@H]1O[C@H](COP(=O)(O)OP(=O)(O)OP(=O)(O)O)[C@@H](O)[C@H]1O	inactive: -2.64%
COc1ccccc1NC(=O)CSc1ncc(CO)n1Cc1ccc(F)cc1	active: 65.3%
Cc1cc(-c2ccccc2)nc2cc(C(=O)Nc3ccc(Cl)c(Cl)c3)nn12	inactive: -3.22%
Cc1ccccc1NC(=O)Cn1c(=O)n(Cc2ccco2)c(=O)c2ccc(C(=O)NC3CCCC3)cc21	inactive: -3.09%
Cc1cccc(N2CCN(C(=O)C3CCN(S(=O)(=O)Cc4ccccc4)CC3)CC2)c1C	inactive: -1.19%
Cc1ccc(C)c(Cn2cc(CCC(=O)NC3CCCCC3)c3ccccc32)c1	inactive: -18.8%
Cn1c(NCc2ccccc2F)nc2ccccc21	inactive: 13.9%
COc1cc(Cl)c(C)cc1NC(=O)CSCc1nc(-c2ccc(OC)c(OC)c2)no1	inactive: -18.7%
Cc1cccc(C)c1NC(=O)C1CCN(S(=O)(=O)c2cccc3nsnc23)CC1	inactive: -1.79%
N=c1n(CCO)c2ccccc2n1CCOc1ccc(F)cc1	inactive: 12.1%
CC(=O)c1cccc(-n2c(CCC(=O)O)ccc2-c2ccccc2)c1	inactive: -10.9%
COc1ccc(OC)c(Nc2cc(C(=O)NCc3ccccc3)c3ccccc3n2)c1	inactive: -13.5%
COc1ccc(-c2nc(SCC(=O)NC3CCCC3)c(-c3ccccc3)[nH]2)cc1OC	inactive: -24.1%
CCOC(=O)C1CCN(C(=O)c2ccc3c(c2)sc2nc(-c4ccc(OCC)cc4)cn23)CC1	inactive: 14.5%
Cc1ccc(NC(=O)Cn2ccn(Cc3ccc(Cl)cc3)c(=O)c2=O)cc1C	inactive: -15.1%
COc1ccc(CNC(=O)c2cnn(-c3ccc(C)cc3)c2C2CCN(C(=O)OC(C)(C)C)CC2)cc1	inactive: -13%
Cc1ccc(-n2ncc3c(Nc4ccc5c(c4)OCCO5)ncnc32)cc1C	inactive: -2.66%
CCOc1ccccc1C(=O)N1CCc2cc(OC)c(OC)cc2C1COc1ccc2c(C)cc(=O)oc2c1 (stereo not drawn)	inactive: 8.41%
COc1ccc(/C=C(\NC(=O)c2ccccc2)C(=O)NC2CCCCC2)cc1	inactive: -6.67%

SMILES	activation
CCOc1ccc(NC(=O)NC(CC)Cn2nnc3ccccc3c2=O)cc1 (stereo not drawn)	inactive: -10.5%
Cc1ccc(OCCSc2nc3ccccc3n2CCC(=O)O)cc1C	inactive: -9.2%
Cc1nc2ncnn2c(C)c1CCC(=O)NCc1ccc(Cl)cc1	inactive: -5.38%
O=C(CSc1ncc(S(=O)(=O)c2ccc(Br)cc2)c(=O)[nH]1)NCc1ccccc1Cl	inactive: 22%
CCN1CCN(C(c2ccc(Cl)cc2)c2c(O)cc(C)n(CCOC)c2=O)CC1 (stereo not drawn)	inactive: -12.4%
COc1ccc(-c2cc(C(=O)Oc3ccc(Cl)cc3)c3ccccc3n2)cc1	inactive: -38.6%
Cc1cc(C)cc(N(CC(=O)Nc2ccc(C(F)(F)F)cc2)S(=O)(=O)c2c(C)[nH]c(=O)[nH]c2=O)c1	active: 112%
CCCCn1cnc2cc(NC(=O)c3cc(OC)c(OC)c(OC)c3)ccc21	inactive: -8.16%
O=C1C(=O)N(C2CCN(C(=O)c3ccc(F)cc3)CC2)CCN1Cc1ccc(F)cc1	inactive: -36.1%
CC1CCc2c(sc3nnn(CC(=O)Nc4cccc(C(F)(F)F)c4)c(=O)c23)C1 (stereo not drawn)	inactive: -6.9%
COc1ccc(-c2cc(C(F)(F)F)nc(NCc3ccccc3)n2)cc1OC	inactive: -37.6%
COc1cccc(CN2c3ccccc3-c3nc(SCC(=O)Nc4cccc(C)c4)ncc3S2(=O)=O)c1	inactive: -3.73%
CCOc1ccc(NCc2cccn2-c2nnc(N3CCC(C(=O)NC(C)c4ccccc4)CC3)s2)cc1 (stereo not drawn)	inactive: -39.2%
Cc1cccc(OC(C)C(=O)N2CCC(c3nc4ccccc4o3)CC2)c1C (stereo not drawn)	inactive: -4.37%
CCc1ccc2oc(-c3cccc(NC(=O)c4ccc(-c5cccc([N+](=O)[O-])c5)o4)c3)nc2c1	inactive: 34.3%
CCOc1ccc(Br)cc1C1C(C(=O)Nc2ccccc2OC)=C(C)Nc2nnnn21 (stereo not drawn)	inactive: -1.53%
CCc1nnc2c3ccccc3nc(Nc3ccc(F)cc3C)n12	inactive: 19.8%
CCN1C(C(=O)c2ccccc2)=C(OC(=O)c2ccc(Cl)cc2)c2ccccc2S1(=O)=O	inactive: -55.8%
CCOc1cccc(NC(=O)CSc2ncc(-c3ccc(Cl)cc3)[nH]2)c1	inactive: -15.1%
CC(=O)N1c2ccc(S(=O)(=O)NCCc3cccc(C)c3)cc2CC1C (stereo not drawn)	inactive: 40.7%
COc1ccc(N2CCN(CC(O)COc3ccc(C)c(C)c3)CC2)cc1 (stereo not drawn)	inactive: -23.2%

SMILES	activation
CCn1c(=O)c(=O)n(CC)c2cc(N3CCCCC3)c(NC(=O)c3cccc(OC)c3)cc21	inactive: 1.54%
CCOC(=O)c1cccc(NC(=O)N2Cc3ccccc3Oc3ncccc32)c1	inactive: -19%
Cc1oc(-c2ccc(C(=O)N(C)Cc3ccccc3)cc2)nc1CN1CCc2ccccc21	inactive: -6.13%
COc1ccc(-n2c(=O)c3c4c(sc3n(Cc3ccccc3)c2=O)CCC4)c(OC)c1	inactive: -22%
CCCCN(CCCC)S(=O)(=O)c1ccc(NC(=O)c2c(-c3ccccc3)noc2C)cc1	inactive: -7.11%
CCOC(=O)c1ccc(-c2ccc(/C=C(\C#N)C(=O)Nc3cccc(C)c3)o2)cc1	inactive: -2.25%
CC1(C)OC(=O)NC1=O	inactive: -13.5%
Cc1ccc(NC(=O)CC2Sc3ccccc3NC2=O)c(C)c1 (stereo not drawn)	inactive: -3.55%
CCN(C(=O)c1cc(S(=O)(=O)N2CCCCC2)c[nH]1)c1ccc(OC)cc1	inactive: 1.93%
Cc1cc(C)cc(OCCOCCn2c(-c3ccc(Cl)cc3)nc3ccccc3c2=O)c1	inactive: -5.74%
C=Cc1ccc(CSc2nc(-c3ccc(Cl)cc3)nc3c2Cc2c(CO)cnc(C)c2O3)cc1	inactive: 39.3%
CCOc1ccc(-n2c(-c3ccc(OC)cc3)cc3c2CC(C)(C)CC3=O)cc1	inactive: -31.1%
Cc1nc2sc(C)c(C)n2c(=O)c1S(=O)(=O)NCCc1ccc(Cl)cc1	inactive: -7.47%
Cc1ccc(CN(Cc2cccn2-c2nnc(N3CCCC3=O)s2)C(=O)Nc2cc(C)cc(C)c2)cc1	inactive: -13.9%
CN1C(=O)c2ccccc2Sc2ccc(NC(=O)NCc3ccccc3Br)cc21	inactive: -1.64%
O=C(C1CCCN(S(=O)(=O)c2cccs2)C1)N1CCN(c2ccccc2F)CC1 (stereo not drawn)	inactive: 6.6%
COc1cccc(CN2C(=O)C3(SCC(=O)N3c3ccc(F)cc3)c3ccccc32)c1 (stereo not drawn)	inactive: -7.23%
COc1ccc(-c2nc3c(c(SCC(=O)Nc4cc(C)cc(C)c4)n2)Cc2c(CO)cnc(C)c2O3)cc1	inactive: 3.86%
Cc1ccc(CN(Cc2ccco2)C(=O)c2ccccc2Cl)o1	inactive: -25.1%
C#C[C@]1(O)CC[C@H]2[C@@H]3CCC4=Cc5oncc5CC4(C)[C@H]3CCC21C (stereo partly drawn)	inactive: 3.5%
